From the BET-seq Pho4 binding data (Le et al. 2018)
This is one part of the list. Values were computed here from the reads of four pooled replicates and scatter widely.

These sequences were tested against T1, Pho4 (S. cerevisiae) (UniProt P07270) (assay: relative binding free energy (BET-seq); higher = weaker binding). Details: reference: library average.
T1 sequence: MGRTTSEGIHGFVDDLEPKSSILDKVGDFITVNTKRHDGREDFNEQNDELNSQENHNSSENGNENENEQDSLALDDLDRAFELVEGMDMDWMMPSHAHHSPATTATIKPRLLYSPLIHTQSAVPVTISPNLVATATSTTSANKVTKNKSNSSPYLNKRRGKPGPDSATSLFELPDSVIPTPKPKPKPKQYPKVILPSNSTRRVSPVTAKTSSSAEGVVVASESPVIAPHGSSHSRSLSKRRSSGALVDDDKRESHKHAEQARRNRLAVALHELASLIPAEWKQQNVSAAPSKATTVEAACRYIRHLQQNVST

Row | Sequence | relative binding free energy [kcal/mol]
1 | TTCGTCACGTGAGTCG | 0.26
2 | GGGTCCACGTGGAAGG | 0.19
3 | TTGAGCACGTGTAGGA | -0.04
4 | TACGTCACGTGTGGTC | 0.06
5 | GCTGTCACGTGGTCGG | 0.03
6 | GTTGACACGTGCTGGT | -0.02
7 | TAACTCACGTGTTTTG | 0.19
8 | TGTGGCACGTGATAAA | -0.01
9 | CTTAGCACGTGAATGT | 0.15
10 | GGTGACACGTGCGCGG | -0.2
11 | GGGTGCACGTGAATGC | 0.34
12 | TAAGGCACGTGGAGCT | -0.13
13 | ACGTGCACGTGGTAGT | -0.15
14 | AAGGTCACGTGGGTTC | -0.03
15 | CGGACCACGTGGTGGG | -0.1
16 | ATGCTCACGTGAGAGG | 0.32
17 | GGATACACGTGGTGGG | 0
18 | GTGTGCACGTGGCTAA | -0.07
19 | AAGATCACGTGGTATT | 0.05
20 | TATAACACGTGTAAGT | 0.06
21 | TGTCTCACGTGGAGGA | 0.15

Row | Sequence | relative binding free energy [kcal/mol]
22 | TATGTCACGTGCTGCG | -0.01
23 | GGGAACACGTGAGGGG | 0.28
24 | AATAACACGTGTGTGT | -0.08
25 | ATTATCACGTGTGACT | 0.23
26 | TTGGGCACGTGCGGGG | -0.01
27 | GTTATCACGTGGTCGG | -0.01
28 | TTTCACACGTGCGTTG | 0.04
29 | CGGGGCACGTGTGTCG | -0.09
30 | AGTTGCACGTGGGGAA | -0.11
31 | ATGGGCACGTGTGAGC | -0.03
32 | AATATCACGTGGTGAT | 0.15
33 | GGTGGCACGTGTGGCG | -0.16
34 | TGGTTCACGTGGAGTC | 0.31
35 | ATTGTCACGTGTGTGA | 0.04
36 | GGTGACACGTGCCGGG | -0.13
37 | TGATACACGTGTTCGT | -0.04
38 | GGGGACACGTGAATTA | 0.33
39 | GAGATCACGTGGGATG | 0.03
40 | GGTTACACGTGTGGTT | 0.25
41 | GTGTACACGTGAGTAT | 0.3
42 | GTTGACACGTGGCGTG | 0

Row | Sequence | relative binding free energy [kcal/mol]
43 | GGGGACACGTGGGCGG | -0.08
44 | GTGAACACGTGTGAAT | 0.27
45 | TCTGTCACGTGATGAG | 0.15
46 | CTGGGCACGTGGTTTG | -0.05
47 | TAACGCACGTGGAGTG | -0.09
48 | GGTAACACGTGTGTTG | 0.12
49 | CCTGTCACGTGGTTTG | 0.05
50 | GTTGACACGTGTAATA | 0.14
51 | CCGTGCACGTGTGGCT | 0.24
52 | AGTGTCACGTGGGAAG | -0.06
53 | GGTGACACGTGTCAGT | 0.09
54 | CATGTCACGTGTGGGG | -0.01
55 | TGATGCACGTGGAGCT | 0
56 | GAATGCACGTGGTGGG | -0.03
57 | TGATTCACGTGAGCAT | 0.34
58 | GGGTACACGTGTTTCA | 0.17
59 | ACAATCACGTGGGTTG | 0
60 | TAGTTCACGTGCAATT | 0.35
61 | AGTTGCACGTGCTCTT | 0.01
62 | ATGCGCACGTGTTGGA | -0.07
63 | TAGGACACGTGTGGGC | 0.25
